Reference: PubChem BioAssay AID1508642 (National Center for Advancing Translational Sciences (NCATS), 2021)
Screen size: about 43,000 compounds; about 200 (0.47%) were called active. About 12% were inconclusive and are not listed. Calls follow the shape of the dose curve; as a rule, active = well fitted cell-killing curve with a large enough effect; inconclusive = small, poorly fitted or top-dose-only effect, or effect the other way; inactive = flat fitted curve, though single readings scatter. Some of the results follow.

Assay: Cell viability qHTS assay in S16 Pmp22-F2sN cells; also: nearly all actives have a fitted effect of over 65% in size
Conditions: S16 Pmp22-F2sN Schwann cells (luciferase reporters placed in the Pmp22 gene) viability, CellTiter-Glo, 24 h; series mostly up to 57.5 µM; activity change, negative = cytotoxicity: at the top concentration
Summary of the method: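 S16 Schwann cells carrying the Pmp22-F2sN reporter, seeded in 1536-well format, were exposed to library compounds for 24 h at 37C. Viability was read as CellTiter-Glo luminescence after 15 min at room temperature.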
% is scaled to controls: 0 for no effect and ±100 for the full control effect.

| SMILES | activity change, negative = cytotoxicity |
| --- | --- |
| COc1ccc(NC(=O)c2cnc(N3CCCC3)nc2)cc1OC | inactive: 2.56% |
| CCCC1=Nc2cc(C(=O)N3CCC(C(=O)OCC)CC3)ccc2Sc2ccccc21 | inactive: 25.5% |
| Cc1ccc2nc(-c3ccccn3)c(Nc3ccccc3C)n2c1 | inactive: -20.5% |
| CCCN1CCc2nc(N3CCN(C)CC3)ncc2C1 | inactive: -1.88% |
| CCN(CC)c1nn2c(=O)c(C(=O)NCCc3cccc(C)c3)cnc2s1 | inactive: 2.17% |
| Fc1cccc(CSc2ccc(-c3cccs3)nn2)c1 | inactive: 4.2% |
| COc1ccc(S(=O)(=O)NCCc2csc3nc(-c4ccccc4)nn23)cc1OC | inactive: 16.5% |
| Cc1cccc(Cn2c(=O)n(-c3ccccc3C)c(=O)c3c2c2cc(C)ccc2n3C)c1 | inactive: 6.03% |
| CCc1cccc(C)c1NS(=O)(=O)c1ccc2c(c1)CC(C)N2C(=O)C1CC1 (configuration not stated) | inactive: -0.519% |
| COc1ccc(-c2noc(CSc3nc4ccccc4[nH]3)n2)cc1OC | inactive: -14.5% |
| COc1ccc(OC(=O)c2nc(SCc3ccccc3C)ncc2Cl)cc1 | inactive: -12.2% |
| Cc1ccccc1OCC(=O)Nc1ccccc1OCc1cc(=O)n2ccccc2n1 | inactive: 2.29% |
| Cc1ccc(S(=O)(=O)NCCc2nnc3ccc(SCC(=O)Nc4ccc(F)cc4F)nn23)cc1 | inactive: 5.31% |
| COc1ccc(CCNC(=O)CCc2c(C)nc3cc(-c4cccc(F)c4)nn3c2C)cc1OC | inactive: -0.695% |
| CCOC(=O)Cn1c(=O)n(CC2CCCO2)c2nc(-c3cc(OC)ccc3OC)nc(C(N)=O)c21 (configuration not stated) | inactive: 6.56% |
| CC(C)c1nn2c(=O)cc(COC(=O)c3ccc(NC(=O)c4cccs4)cc3)nc2s1 | inactive: -1.8% |
| CCCOc1ccc(C(=O)N(Cc2ccco2)Cc2ccco2)cc1 | inactive: -9.19% |
| O=C(NCC(c1cccs1)S(=O)(=O)c1cccs1)c1c(F)cccc1F (configuration not stated) | inactive: -0.902% |
| COc1ccccc1-n1c(=O)n(C)c2c(C(N)=O)nc(-c3cccc(OC)c3OC)nc21 | inactive: 15.3% |
| COc1cccc(CSc2nc3n(n2)C(CC(C)C)C(C(=O)Nc2ccccc2C)=C(C)N3)c1 (configuration not stated) | inactive: 4.67% |
| COc1ccc(C(=O)Nc2cccc(C(=O)OCc3cc(=O)n4c5c(sc4n3)CCCC5)c2)cc1 | inactive: 5.16% |

| SMILES | activity change, negative = cytotoxicity |
| --- | --- |
| Cc1ccc(CCNC(=O)CCCc2nnc3n(C)c(=O)c4sccc4n23)cc1 | inactive: -1.31% |
| Cc1cc(C)c2c(CC(=O)Nc3cc(C(F)(F)F)ccc3Cl)coc2c1 | inactive: -7.41% |
| CC(NC(=O)c1ccc2c(c1)sc1nc(-c3ccc(F)cc3)cn12)C12CC3CC(CC(C3)C1)C2 (configuration not stated) | inactive: 4.11% |
| COc1cc(OC)c(NC(=O)CCc2c(C)nc3c4c(C)cc(C)nc4nn3c2C)cc1Cl | inactive: 1.56% |
| COc1cc(NC(=O)C2CCN(S(=O)(=O)c3c(C)noc3/C=C/c3ccccc3F)CC2)cc(OC)c1OC | inactive: -21.9% |
| COc1cccc(/C=C/c2nc(C#N)c(N3CCN(C)CC3)o2)c1 | inactive: 0.993% |
| CC1Cn2c(C(=O)NCc3ccccc3Cl)cc3cccc(c32)S1 (configuration not stated) | inactive: -3.88% |
| CCN(CCCNC(=O)Cn1ncc2c([nH]c3ccc(C)cc32)c1=O)c1ccccc1 | inactive: 6.8% |
| N#Cc1cc2c(=O)n3ccccc3nc2n(-c2nnc(SCc3ccccc3Cl)s2)c1=O | inactive: 9.4% |
| CCC(Sc1nc2n[nH]c(C)c2c(=N)n1-c1ccccc1Cl)C(=O)N(CC)CC (configuration not stated) | inactive: -12.7% |
| Cc1cccc(NC(=O)c2cc3c(=O)n(Cc4cccnc4)ccc3nc2C)c1 | inactive: -2.53% |
| COc1ccc(-c2noc(CNC(=O)COc3cccc(C)c3C)n2)cc1 | inactive: 0.743% |
| O=C(COCc1cc(-c2ccc3c(c2)OCO3)on1)Nc1cc(Cl)ccc1O | inactive: 4.33% |
| O=C(NCCc1ccc(Cl)cc1)C1CCN(S(=O)(=O)c2ccc3[nH]ccc3c2)CC1 | inactive: -2.25% |
| COc1ccc(CCNC(=O)C(=O)NCC(c2cccs2)S(=O)(=O)c2ccc(F)cc2)cc1 (configuration not stated) | inactive: -7.07% |
| COc1ccc(-c2nc(CSCC(=O)NCc3ccccc3Cl)c(C)o2)cc1OC | inactive: -12.5% |
| CCOC(=O)c1c(C)oc2nc(C)nc(NCCCN3CCN(c4cc(C)ccc4C)CC3)c12 | inactive: 17.2% |
| Cc1ccc2nc(Cl)c3cc(C(=O)N4CCCCC4)sc3c2c1 | inactive: -15.2% |
| COC(=O)c1cc(S(=O)(=O)NCC2CCN(Cc3cccc(F)c3)CC2)cn1C | inactive: 1.2% |
| Cc1cc(C)c(Cn2c(=O)n(CCCC(=O)NCc3ccc4c(c3)OCO4)c(=O)c3sccc32)c(C)c1 | inactive: 0.787% |
| CNC(=O)C1CCC(Cn2c(=O)c3sccc3n(CC(=O)N3CCC(C)CC3)c2=O)CC1 (configuration not stated) | inactive: 1.24% |

| SMILES | activity change, negative = cytotoxicity |
| --- | --- |
| Cn1c(=O)c2c(nc(SCC(=O)Nc3ccc(F)c(F)c3)n2Cc2ccccc2F)n(C)c1=O | inactive: -3.96% |
| COc1ccc(N(C(=O)Cn2nnc3ccccc32)C(C(=O)NCc2ccccc2)c2ccc(F)cc2)cc1 (configuration not stated) | inactive: 2.78% |
| Cn1nnc2c(NCc3c(F)cccc3F)ncnc21 | inactive: -8.17% |
| COc1ccc(N2CCN(Cc3nc4c(c(=O)[nH]c(=O)n4C)n3Cc3ccccc3F)CC2)cc1 | inactive: -6.98% |
| O=C(CC(c1cccs1)N1Cc2ccccc2C1=O)Nc1ccc(F)cc1F (configuration not stated) | inactive: -10% |
| COc1ccc(C(CNC(=O)Cc2ccc(Cl)cc2)N2CCOCC2)cc1 (configuration not stated) | inactive: 9.77% |
| O=C(CSc1nc(=O)n(CCN2CCOCC2)c2c1CCC2)Nc1cccc(Cl)c1 | inactive: 13.2% |
| Cc1cccc(CC(=O)NC2CC(=O)N(c3ccccc3)C2)c1 (configuration not stated) | inactive: -0.944% |
| CCc1ccccc1NC(=O)CSc1nc2ncccc2o1 | inactive: 18.2% |
| O=C(CCc1ccccc1)N1CCc2c([nH]c3ccccc23)C1c1ccc(Cl)cc1 (configuration not stated) | inactive: -21.2% |
| COC(=O)c1ccc(Cl)cc1NC(=O)NC(C)c1c(-n2cccc2)sc(C)c1C (configuration not stated) | inactive: -5.46% |
| O=c1c2c3c(sc2n(Cc2ccccc2F)c(=O)n1-c1ccc(Cl)cc1)CCCC3 | inactive: -1.29% |
| COc1ccc(NC(=O)CCc2nc3cccnc3n2-c2ccccc2)cc1Cl | inactive: 7.31% |
| CC(C)c1ccc(C2c3c(oc4ccc(Cl)cc4c3=O)C(=O)N2CCCN2CCOCC2)cc1 (configuration not stated) | inactive: 8.56% |
| Cc1ccc(O)c(NC(=O)c2cc(-c3ccc(F)cc3)on2)c1 | inactive: 21% |
| Cc1cccc(C(=O)N2CCC(N3CCN(Cc4ccc(F)cc4)C(=O)C3=O)CC2)c1 | inactive: -0.817% |
| Cc1cc(-c2ccc(S(=O)(=O)Nc3cc(Cl)ccc3C)s2)on1 | inactive: -16.4% |
| COCCn1c(SCC(=O)Nc2cccc(C)c2C)nc2c(oc3ccccc32)c1=O | inactive: 17.3% |
| CCOC(=O)c1c(C)[nH]c(CCC(=O)NCc2cccc(OC)c2)c1C | inactive: 0.789% |
| Cc1ccc(Cl)cc1N1CCN(C(=O)CCn2c(=O)c3cccn3c3cccnc32)CC1 | inactive: 1.11% |
